From PubChem BioAssay AID504832 (National Center for Advancing Translational Sciences (NCATS), 2011)
Hit rate of the full screen: of about 310,000 compounds, about 18,000 (5.8%) were called active. This list was built around the results that the source calls inconclusive (neither active nor inactive); the mix of calls is not that of the screen. Calls follow the shape of the dose curve; as a rule, active = well fitted inhibition curve with a large enough effect; inconclusive = small, poorly fitted or top-dose-only effect, or another doubt; inactive = no such curve, though single readings can be large or run the other way. Potencies of inconclusive entries are left out as doubtful fits.

Test: Primary qHTS for delayed death inhibitors of the malarial parasite plastid, 48 hour incubation
Settings: P. falciparum luciferase growth in erythrocytes; series mostly up to 28.7 µM; activity change, negative = inhibition: at the top concentration
Procedure, shortened: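 Parasite viability was followed by luminescence of a genomically integrated firefly luciferase. Cultures held 0.1% parasitemia at 2% hematocrit (final), incubated under 5% CO2 at 37 C.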
% is scaled to controls: 0 for no effect and ±100 for the full control effect; potency is read from the fitted curve at half-maximal effect; tags tell the direction and shape of the fitted curve.

| Structure (SMILES) | Potency | activity change, negative = inhibition |
| --- | --- | --- |
| O=C(CSc1nc2ccccc2n1Cc1ccccc1)N/N=C/c1ccccc1C(=O)O | inconclusive [inhibitor, single point] | – |
| CC(C)C[C@H](NC(=O)c1nc[nH]c1C(=O)NCC(=O)OC(C)(C)C)C(=O)OC(C)(C)C | inconclusive [inhibitor, single point] | – |
| O=c1c2ccccc2nc(SCc2nc(-c3ccccc3)no2)n1-c1ccc(F)cc1 | inconclusive [inhibitor, single point] | – |
| O=C(CN1CCOCC1)NN1CC(=O)N(c2ccc(Cl)cc2)CC1=O | – | inactive: -5.72% |
| COc1ccc(C(=O)NC(C(=O)OCC(=O)Nc2sccc2C(N)=O)C(C)C)cc1 (stereo not given) | active: 11.7 µM | – |
| CCOc1ccc2oc(C(=O)Nc3cc(C)ccn3)c(C)c2c1 | – | inactive: -1.97% |
| Fc1ccc(NC(=S)Nc2ccc3nccnc3c2)cc1 | – | inactive: 19.8% |
| COc1ccc(C(CCN2CCCC(C)C2)c2c(OC)cc(OC)c3c2OC(=O)CC3c2cc(OC)c(OC)c(OC)c2)cc1 (stereo not given) | active: 11.7 µM | – |
| COc1c(Cl)cnn(-c2cccc(C)c2)c1=O | – | inactive: -22.9% |
| COC(=O)c1cc([N+](=O)[O-])c(-n2ccnc2)c([N+](=O)[O-])c1 | – | inactive: -28.9% |
| CCOc1cc([C@H]2[C@@H]3CCCC[C@]3(O)CCN2CC(=O)NCc2ccco2)ccc1O | inconclusive [inhibitor, partial curve] | – |
| Cc1ccc2[nH]c(C(=O)N3CCN(C(c4ccccc4)c4ccccc4)CC3)cc2c1 | active: 2.62 µM | – |
| Cc1cccc(NC(=O)CC2CCC2)c1 | – | inactive: 22% |
| CCCCn1c(N)c(N(CC)C(=O)c2ccc3c(c2)S(=O)(=O)c2ccccc2C3=O)c(=O)[nH]c1=O | inconclusive [inhibitor, single point] | – |
| COc1ccc(C(=O)N2CCc3cc4c(cc3C2C)OCCCO4)cc1 (stereo not given) | inconclusive [inhibitor, partial curve, poor fit] | – |
| Cc1cc(OCC(=O)NCCc2c[nH]c3ccccc23)c2c(C)c(C)c(=O)oc2c1 | inconclusive [inhibitor, partial curve, poor fit] | – |
| O=C(N/N=C/c1ccccc1O)c1cccc2ccccc12 | active: 11.7 µM | – |
| COc1ccccc1C(=O)NCCNc1nc2cc(C)cc(C)c2cc1C#N | inconclusive [inhibitor, partial curve, poor fit] | – |
| Cc1cccc(NC(=O)CSc2nnc(CNC(=O)c3ccc(S(=O)(=O)N(C)C)cc3)n2-c2ccccc2)c1 | inconclusive [inhibitor, single point] | – |
| COc1cc2c3nnc(-c4ccc(F)cc4)c-3cn(Cc3ccccc3)c2cc1OC | inconclusive [inhibitor, full curve] | – |
| Cc1cc(/C=N\NC(=O)COc2cccc3cccnc23)c(C)n1-c1ccccc1 | inconclusive [inhibitor, single point] | – |
| Cc1cc(N2C(=O)C(O)=C(C(=O)c3cc4ccccc4o3)C2c2ccc(Br)cc2)no1 (stereo not given) | inconclusive [inhibitor, single point] | – |
| Cn1c(Nc2ccc(Cl)cc2)cc(=O)n(C)c1=O | inconclusive [inhibitor, single point] | – |

| Structure (SMILES) | Potency | activity change, negative = inhibition |
| --- | --- | --- |
| CC(NC(=S)Nc1cccc(C(F)(F)F)c1)C(C)(C)C (stereo not given) | inconclusive [inhibitor, single point] | – |
| C=CCN1C=C2C(=O)C(C)(OC(=O)C3CCCC3)C(=O)C(c3ccccc3)=C2C=C1CCCC(=O)OC (stereo not given) | inconclusive [inhibitor, single point] | – |
| COc1ccc(C(=O)NC2CCN(CC(=O)NCc3ccccc3F)CC2)cc1 | – | inactive: -17.1% |
| COC(=O)C1C2C=CC3(CN(C(C)c4ccc(OC)cc4)C(=O)C13)O2 (stereo not given) | inconclusive [inhibitor, partial curve, poor fit] | – |
| O=C(c1cn(-c2ccccc2)nc1-c1cccc(Br)c1)N1CCOCC1 | inconclusive [inhibitor, single point] | – |
| CNC(=O)NC(=O)CSc1nc2sccc2c(=O)n1-c1ccccc1 | inconclusive [inhibitor, partial curve, poor fit] | – |
| COc1cccc(N2CC(NC(=O)C(=O)c3c(C)[nH]c4ccccc34)CC2=O)c1 (stereo not given) | inconclusive [inhibitor, full curve, poor fit] | – |
| CC1CCCN(C(=O)c2cc3ccccc3cc2O)C1 (stereo not given) | inconclusive [inhibitor, single point] | – |
| Cc1nc(NC(=O)CSc2nnc(-c3ccc4c(c3)OCO4)o2)c(Cl)cc1Cl | – | inactive: 77.4% |
| O=C(c1ccc(Cl)c(S(=O)(=O)N2CCCCC2)c1)N1CCCCC1 | – | inactive: -23.1% |
| O[Si](CCCN1CCCCC1)(c1ccc(F)cc1)C1CCCCC1 (stereo not given) | active: 0.0928 µM | – |
| COc1ccccc1CCNC(=O)C(=O)NCC1OCCN1S(=O)(=O)c1ccc2c(c1)OCCO2 (stereo not given) | inconclusive [inhibitor, single point] | – |
| COc1ccc(CNC(=O)C(=O)NCC(c2ccco2)N2CCOCC2)cc1 (stereo not given) | – | inactive: 10.7% |
| CNC(=S)NCCCc1ccccc1 | – | inactive: -2.48% |
| CCOC(=O)C1=C(CN2CCN(C(=O)c3ccco3)CC2)NC(=O)NC1c1ccc(C)cc1 (stereo not given) | active: 13.1 µM | – |
| COC(=O)c1ccccc1NC(=O)c1cnn2c(C(F)F)cc(C3CC3)nc12 | inconclusive [inhibitor, single point] | – |
| O=C(CSc1nnc(-c2cccnc2)n1Cc1ccccc1)NCc1ccccc1 | – | inactive: -11.9% |
| CCOC(=O)CN1C(=O)NC2(CCCc3ccccc32)C1=O (stereo not given) | – | inactive: 9.11% |
| Cc1cc(C)c(C(=O)OCC(=O)Nc2cccc(S(=O)(=O)N3CCCCC3)c2)c(C)c1 | inconclusive [inhibitor, single point] | – |
| COc1ccc(NC(=O)CCCN2C(=O)CN(C)C2=O)cc1Cl | – | inactive: 11% |
| O=C(CCc1nc2ccccc2[nH]1)NCc1ccc2c(c1)OCO2 | – | inactive: 7.74% |
| O=C(Nc1cc(S(=O)(=O)N2CCCCC2)ccc1Cl)c1ccc(F)cc1 | inconclusive [inhibitor, single point] | – |
